{"source": "the supplement of paper PMC8728848", "binders": {"B1": {"name": "Si Bti9 1b-HA (Solanum lycopersicum) (protein)", "chain": "MFESRPRSVLSLGVFVILVYLSSVPLPVNSQCNRGCDLALASFYVWRGSNLTLISEMFSTSIADIVSYNNRDNIPNQDSVIAGTRINIPFRCDCLNDGEVLGHAFPYRVKSGDTYDLVARNYSDLTTAQWMMKFNSYPENNIPNTVNLSVVVNCSCGNSDVSKDFGLFVTYPVRAEDNLTSVASAANVSEDIIRRYNPAAVSILDIGQGIIYIPGRDRNGNFPPLPTSTDGLSGGAKAPLFFNPAFLYKVVELKLAGRSRTSGYPYDVPDYAGYPYDVPDYALEVLFQ"}}, "test_in_all_cases": "glycan array binding signal (z-score within array); higher = stronger binding", "conditions_in_all_cases": "glycan notation: IUPAC condensed, linker removed", "key": {"Fuc(a1-2)Gal": {"molecular_target": "Fuc(a1-2)Gal", "procedure,_shortened": "(§1)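 Arrays were curated from the Consortium for Functional Glycomics database, 3228 in total, and kept only where the protein sequence was available. Binding is expressed as a within-array Z-score. This score was averaged across arrays of the same protein sequence at different concentrations or buffers and across linkers, and negative values can be read as non-binding.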"}, "Fuc(a1-2)Gal(b1-3)GalNAc": {"molecular_target": "Fuc(a1-2)Gal(b1-3)GalNAc", "procedure,_shortened": "as §1"}, "[1]": {"molecular_target": "Fuc(a1-2)Gal(b1-3)GalNAc(a1-3)[Fuc(a1-2)]Gal(b1-4)Glc", "procedure,_shortened": "as §1"}, "[2]": {"molecular_target": "Fuc(a1-2)Gal(b1-3)GalNAc(a1-3)[Fuc(a1-2)]Gal(b1-4)GlcNAc", "procedure,_shortened": "as §1"}, "[3]": {"molecular_target": "Fuc(a1-2)Gal(b1-3)GalNAc(b1-3)Gal", "procedure,_shortened": "as §1"}, "[4]": {"molecular_target": "Fuc(a1-2)Gal(b1-3)GalNAc(b1-3)Gal(a1-4)Gal(b1-4)Glc", "procedure,_shortened": "as §1"}, "[5]": {"molecular_target": "Fuc(a1-2)Gal(b1-3)GalNAc(b1-4)[Neu5Ac(a2-3)]Gal(b1-4)Glc", "procedure,_shortened": "as §1"}, "Fuc(a1-2)Gal(b1-3)GlcNAc": {"molecular_target": "Fuc(a1-2)Gal(b1-3)GlcNAc", "procedure,_shortened": "as §1"}, "[6]": {"molecular_target": "Fuc(a1-2)Gal(b1-3)GlcNAc(b1-2)Man(a1-3)[Fuc(a1-2)Gal(b1-3)GlcNAc(b1-2)Man(a1-6)]Man(b1-4)GlcNAc(b1-4)GlcNAc", "procedure,_shortened": "as §1"}, "[7]": {"molecular_target": "Fuc(a1-2)Gal(b1-3)GlcNAc(b1-2)Man(a1-3)[Fuc(a1-2)Gal(b1-3)GlcNAc(b1-2)Man(a1-6)]Man(b1-4)GlcNAc(b1-4)[Fuc(a1-6)]GlcNAc", "procedure,_shortened": "as §1"}, "[8]": {"molecular_target": "Fuc(a1-2)Gal(b1-3)GlcNAc(b1-3)Gal(b1-4)Glc", "procedure,_shortened": "as §1"}, "[9]": {"molecular_target": "Fuc(a1-2)Gal(b1-3)GlcNAc(b1-3)GalNAc", "procedure,_shortened": "as §1"}, "[10]": {"molecular_target": "Fuc(a1-2)Gal(b1-3)GlcNAc(b1-3)[Fuc(a1-2)Gal(b1-3)GlcNAc(b1-6)]GalNAc", "procedure,_shortened": "as §1"}, "[11]": {"molecular_target": "Fuc(a1-2)Gal(b1-3)GlcNAc(b1-3)[Gal(b1-4)GlcNAc(b1-6)]Gal(b1-4)Glc", "procedure,_shortened": "as §1"}, "[12]": {"molecular_target": "Fuc(a1-2)Gal(b1-3)GlcNAc(b1-3)[Neu5Ac(a2-6)Gal(b1-4)GlcNAc(b1-6)]Gal(b1-4)Glc", "procedure,_shortened": "as §1"}, "[13]": {"molecular_target": "Fuc(a1-2)Gal(b1-3)GlcNAc6S", "procedure,_shortened": "as §1"}, "[14]": {"molecular_target": "Fuc(a1-2)Gal(b1-3)[Fuc(a1-4)]GlcNAc", "procedure,_shortened": "as §1"}, "[15]": {"molecular_target": "Fuc(a1-2)Gal(b1-3)[Fuc(a1-4)]GlcNAc(b1-2)Man(a1-3)[Fuc(a1-2)Gal(b1-3)[Fuc(a1-4)]GlcNAc(b1-2)Man(a1-3)]Man(b1-4)GlcNAc(b1-4)GlcNAc", "procedure,_shortened": "as §1"}, "[16]": {"molecular_target": "Fuc(a1-2)Gal(b1-3)[Fuc(a1-4)]GlcNAc(b1-2)Man(a1-3)[Fuc(a1-2)Gal(b1-3)[Fuc(a1-4)]GlcNAc(b1-2)Man(a1-6)]Man(b1-4)GlcNAc(b1-4)[Fuc(a1-6)]GlcNAc(b1-4)[Fuc(a1-6)]GlcNAc", "procedure,_shortened": "as §1"}, "[17]": {"molecular_target": "Fuc(a1-2)Gal(b1-3)[Fuc(a1-4)]GlcNAc(b1-3)[Fuc(a1-3)[Gal(b1-4)]GlcNAc(b1-6)]Gal(b1-4)Glc", "procedure,_shortened": "as §1"}, "[18]": {"molecular_target": "Fuc(a1-2)Gal(b1-3)[Fuc(a1-4)]GlcNAc(b1-3)[Gal(b1-4)GlcNAc(b1-6)]Gal(b1-4)Glc", "procedure,_shortened": "as §1"}, "Fuc(a1-2)Gal(b1-4)Glc": {"molecular_target": "Fuc(a1-2)Gal(b1-4)Glc", "procedure,_shortened": "as §1"}, "Fuc(a1-2)Gal(b1-4)Glc6S": {"molecular_target": "Fuc(a1-2)Gal(b1-4)Glc6S", "procedure,_shortened": "as §1"}, "Fuc(a1-2)Gal(b1-4)GlcNAc": {"molecular_target": "Fuc(a1-2)Gal(b1-4)GlcNAc", "procedure,_shortened": "as §1"}, "[19]": {"molecular_target": "Fuc(a1-2)Gal(b1-4)GlcNAc(b1-2)Man", "procedure,_shortened": "as §1"}, "[20]": {"molecular_target": "Fuc(a1-2)Gal(b1-4)GlcNAc(b1-2)Man(a1-3)[Fuc(a1-2)Gal(b1-4)GlcNAc(b1-2)Man(a1-6)]Man(b1-4)GlcNAc(b1-4)GlcNAc", "procedure,_shortened": "as §1"}, "[21]": {"molecular_target": "Fuc(a1-2)Gal(b1-4)GlcNAc(b1-2)Man(a1-3)[Fuc(a1-2)Gal(b1-4)GlcNAc(b1-2)Man(a1-6)]Man(b1-4)GlcNAc(b1-4)[Fuc(a1-6)]GlcNAc", "procedure,_shortened": "as §1"}, "[22]": {"molecular_target": "Fuc(a1-2)Gal(b1-4)GlcNAc(b1-2)[Fuc(a1-2)Gal(b1-4)GlcNAc(b1-4)]Man(a1-3)[Fuc(a1-2)Gal(b1-4)GlcNAc(b1-2)Man(a1-6)]Man(b1-4)GlcNAc(b1-4)GlcNAc", "procedure,_shortened": "as §1"}, "[23]": {"molecular_target": "Fuc(a1-2)Gal(b1-4)GlcNAc(b1-3)Gal(b1-4)GlcNAc", "procedure,_shortened": "as §1"}, "[24]": {"molecular_target": "Fuc(a1-2)Gal(b1-4)GlcNAc(b1-3)Gal(b1-4)GlcNAc(b1-2)Man(a1-3)[Fuc(a1-2)Gal(b1-4)GlcNAc(b1-3)Gal(b1-4)GlcNAc(b1-2)Man(a1-6)]Man(b1-4)GlcNAc(b1-4)GlcNAc", "procedure,_shortened": "as §1"}}, "note": "Some of the results follow."}
{"binder": "B1", "values": [{"measurement": "glycan array binding signal (z-score)", "setting": "Fuc(a1-2)Gal", "value": -0.051}, {"measurement": "glycan array binding signal (z-score)", "setting": "Fuc(a1-2)Gal(b1-3)GalNAc", "value": -0.072}, {"measurement": "glycan array binding signal (z-score)", "setting": "[1]", "value": 0.034}, {"measurement": "glycan array binding signal (z-score)", "setting": "[2]", "value": 0.182}, {"measurement": "glycan array binding signal (z-score)", "setting": "[3]", "value": 0.238}, {"measurement": "glycan array binding signal (z-score)", "setting": "[4]", "value": 0.005}, {"measurement": "glycan array binding signal (z-score)", "setting": "[5]", "value": -0.408}, {"measurement": "glycan array binding signal (z-score)", "setting": "Fuc(a1-2)Gal(b1-3)GlcNAc", "value": -0.5}, {"measurement": "glycan array binding signal (z-score)", "setting": "[6]", "value": 0.652}, {"measurement": "glycan array binding signal (z-score)", "setting": "[7]", "value": 0.795}, {"measurement": "glycan array binding signal (z-score)", "setting": "[8]", "value": -0.131}, {"measurement": "glycan array binding signal (z-score)", "setting": "[9]", "value": -0.385}, {"measurement": "glycan array binding signal (z-score)", "setting": "[10]", "value": -0.159}, {"measurement": "glycan array binding signal (z-score)", "setting": "[11]", "value": -0.108}, {"measurement": "glycan array binding signal (z-score)", "setting": "[12]", "value": -0.237}, {"measurement": "glycan array binding signal (z-score)", "setting": "[13]", "value": 0.453}, {"measurement": "glycan array binding signal (z-score)", "setting": "[14]", "value": -0.473}, {"measurement": "glycan array binding signal (z-score)", "setting": "[15]", "value": 0.926}, {"measurement": "glycan array binding signal (z-score)", "setting": "[16]", "value": -0.022}, {"measurement": "glycan array binding signal (z-score)", "setting": "[17]", "value": -0.473}, {"measurement": "glycan array binding signal (z-score)", "setting": "[18]", "value": -0.326}, {"measurement": "glycan array binding signal (z-score)", "setting": "Fuc(a1-2)Gal(b1-4)Glc", "value": -0.268}, {"measurement": "glycan array binding signal (z-score)", "setting": "Fuc(a1-2)Gal(b1-4)Glc6S", "value": -0.246}, {"measurement": "glycan array binding signal (z-score)", "setting": "Fuc(a1-2)Gal(b1-4)GlcNAc", "value": -0.204}, {"measurement": "glycan array binding signal (z-score)", "setting": "[19]", "value": 0.248}, {"measurement": "glycan array binding signal (z-score)", "setting": "[20]", "value": 0.084}, {"measurement": "glycan array binding signal (z-score)", "setting": "[21]", "value": 1.61}, {"measurement": "glycan array binding signal (z-score)", "setting": "[22]", "value": 0.108}, {"measurement": "glycan array binding signal (z-score)", "setting": "[23]", "value": -0.424}, {"measurement": "glycan array binding signal (z-score)", "setting": "[24]", "value": -0.121}]}
